± gives the standard deviation of the averaged measurements. This is one part of the list.
Tested on: PfAP2-EXP AP2 domain (GST-tagged)
Experiment: gcPBM binding intensity (ln(normalized median fluorescence intensity)); higher = stronger DNA binding
Outline: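 Alexa488 anti-GST antibody, scanned at 488 nm, detected GST-tagged P. falciparum DNA-binding domains that had been expressed in E. coli and incubated for 1 h on an Agilent 4 × 180k array. The array carried primer-extended double-stranded 36-bp intergenic genomic probes and negative controls. Binding intensity is the highest Masliner-normalised natural-log median intensity across replicate spots of either orientation of each probe.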

Sequence	gcPBM binding intensity (ln)
ATATATATAATAAATACACACATTTATATAGATAAA [CACACA_site3254]	8.27 ± 0.28
ATTCAATATTTATACACACACACTTTTAATAATTAA [CACACA_site7725]	8.7 ± 0.38
TCAACATTCATTGGAAGTACTCACTCCCATATAATA [XGTACX_site5211]	8.43 ± 0.27
AATATAAGGATATATACACACATAAATACATACATA [CACACA_site7859]	8.67 ± 0.31
TATTTTTTTAGATATACATGCAAAAACAGAAGAAAT [TGCATGCA_site283]	9.12 ± 0.35
AATATGTCATATATGTGTACATATGCACAGATATTA [XGTACX_site951]	8.63 ± 0.22
TGAACTTTAAACCCTGAACACACACTAATACACCCA [CACACA_site7970]	8.88 ± 0.47
ATAAAAAGAAATCCAATACACACCTTCAAAATGGGT [CACACA_site1622]	8.55 ± 0.67
CATAAATGTCTCACATGTACATATGCATTTTTAAAA [XGTACX_site3194]	8.69 ± 0.28
TATATATAATATTGCACACAAAATTAAAAGTAAATA [CACACA_site19]	8.4 ± 0.28
TGCATAAATTTATGCACACATAAAAAAAAAAAAAAA [CACACA_site2923]	8.73
CAACTCTTATTTAATTATATGAATTAATTTATATGA [CACACA_negctrl_site200]	8.09 ± 0.37
TTAAATACTAAAAAGTGTACACATACATAAAAAATT [XGTACX_site6261]	8.91 ± 0.17
ATTATGTTAATAATATGTACATATATCTACATATAT [XGTACX_site7978]	8.37 ± 0.33
ATTATTTTGTTTATTACATGCAGGTGTATATTACAG [TGCATGCA_site723]	9.12 ± 0.4
GAGTATATTTATATTGCACACAATTTTTTTATTTTT [CACACA_site2644]	8.56 ± 0.18
TTTTCGATATGCTTTTTTTTTCTACTGTCTTTTTAA [TGCATGCA_negctrl_site54]	8.69 ± 0.45
ATATCAAATTCTGAAACACACAAAATTACACCTCTA [CACACA_site169]	8.43 ± 0.62
CACATACATAAATACACACACAAAATAATAAAATAA [CACACA_site5304]	8.7 ± 0.36

Sequence	gcPBM binding intensity (ln)
TTACTTAATAGACACACACACAAAAAAAAAAAAAAA [CACACA_site6572]	8.21 ± 0.49
CAAAAATATTATTATAGTACATAAATAATATATTTT [XGTACX_site6902]	8.15 ± 0.42
TAAAAATAGGAGTGTGTGCACATAAATTATATACTA [GTGCAC_site9405]	8.9 ± 0.18
AAAAAAAAAAAAAAAAAAAAACACCCAAAAAAATAT [XGTACX_negctrl_site210]	9.07 ± 0.085
GAAAGACAAATTGTGACACACACAAAAAAAAAAAAA [CACACA_site9241]	8.41 ± 0.57
TATATATATATTTTTTGTACATATTATATAATATAC [XGTACX_site5187]	9.46 ± 0.35
TTTTCATTTTTCTTTACACACATATATATATATATA [CACACA_site2236]	10.2 ± 0.31
ACCTTATAAAAAAAAAGTACATATATAAATAATAAA [XGTACX_site4338]	9.71 ± 0.37
ATATTTTTTACTATTACACACAAGGGATTATTATTT [CACACA_site3915]	8.62 ± 0.44
TCAAATAATTTGTTGACACACACACCCACATACATA [CACACA_site8717]	8.76 ± 0.51
TATACATAATATATATGTACATATATTCTTTATTTT [XGTACX_site4565]	8.51 ± 0.33
AAACAATAAAAGATTACACACATATATAGCATATAT [CACACA_site1698]	8.61 ± 0.35
TATTTATGCACGCGTGCACACACATATGAAAAAAGG [CACACA_site9090]	9.23 ± 0.11
AATTGCTAATGGTACGAACACACATATAAAGATGCA [CACACA_site8634]	8.97 ± 0.42
AAGAATGTTAACGTTGCACACAAAAAAAAAGTATAC [CACACA_site8763]	8.88 ± 0.46
ATATAAGTTATTTTATACAAAAAAAAAAAAAAAAAT [CACACA_negctrl_site1190]	8.34 ± 0.46
AAAAAAAAAAAAAATACACACACATATATATATATA [CACACA_site8698]	10.1 ± 0.26
CTTTCATATGTTTTAACACACACGCATATATTATAG [CACACA_site7033]	8.9 ± 0.39
GTAAACAATTATGAACGTACATAAAATAAATGAACA [XGTACX_site7159]	8.89 ± 0.43

Sequence	gcPBM binding intensity (ln)
TGTCTTTTTAAGTTTTGTACATAAATATATTTCAAA [XGTACX_site427]	8.81 ± 0.29
TTTTTATGGACTATGGTGCATTATATATAAATGAAA [GTGCAC_site9557]	9.2 ± 0.48
AGTATACACAGACACACACACACATATATATATATA [CACACA_site8510]	10.2 ± 0.23
TAATATTATATAAATTGTACTATTTTTTCCTTATTC [XGTACX_site5314]	8.41 ± 0.54
ATATAAAACAACGGGTGTACAAAAAAATAAATAATA [XGTACX_site4094]	8.535 ± 0.064
AAAGAAATGAAATATACACACATACCTATATACATA [CACACA_site7817]	8.48 ± 0.29
TATAGATACCTATACACACACACACGGACATATATA [CACACA_site7585]	8.84 ± 0.48
TTTTTCTTCTGCATTATGCACACTATAATTCGTTAA [CACACA_site2837]	9.11 ± 0.38
TTTTTAATATATAAAGATAATAATAAATAAAATTCA [CACACA_negctrl_site657]	8 ± 0.38
TATAATGATGATGATAGTACGTATGAGTTCAAAAAA [XGTACX_site3656]	8.71 ± 0.43
TTAAAATCTTGAAAAGTGCATTATCATTTTGTAACG [GTGCAC_site9447]	8.545 ± 0.021
TATATATTTATATATGCATGTACATTTTTATTTATT [TGCATGCA_site1048]	8.82 ± 0.25
CTGAATGTATATATTTGTACATATATATATATATAT [XGTACX_site5557]	10.4 ± 0.22
TTTTTTTTTTTTAATTAACACACATAAATATATATA [CACACA_site9077]	8.37 ± 0.42
AAAAAAAAAAAACACGCATGTACATAAAAATAATCA [TGCATGCA_site142]	8.85 ± 0.49
GGGTATAATAAAAGCACACACAAAGATATAAATATA [CACACA_site3308]	8.87 ± 0.38
TTTTTGATGAAATATTATTTTCCTGACTTGGATTAA [CACACA_negctrl_site148]	8.16 ± 0.45
AACCATAAATAATTATGTACTAAAAAAAATATATAT [XGTACX_site3415]	8.61 ± 0.27

From the supplement of paper PMC11417369
